According to the supplement of paper PMC12297408:
Where a name gives a salt, the structure may show the parent alone. The campaign covered roughly 1,300 compounds. About 40 (3%) showed activity. The list shows a part of the results.

Tested on: Plasmodium falciparum NF54/iGP1_RE9H ulg8 stage V gametocytes
Test: gametocyte viability (luciferase signal relative to DMSO control) (% of DMSO control); higher = less gametocytocidal activity, active = 50 or less
Conditions: exposure time: 72 h
Method in brief: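 In 96-well plates holding nanolitre spots of compound (10 mM DMSO stocks), NF54/iGP1_RE9Hulg8 stage V gametocytes from day 12 were added at ~2.5% gametocytemia and 3% hematocrit in medium with 0.5% Albumax II, giving single wells at 10 µM or 1 µM. Incubation lasted 72 h at 37 °C. Each 90 µl sample then received 10 µl D-luciferin (30 mg/ml) before luminescence reading on an IVIS Lumina II, and viability was normalized to the mean of DMSO vehicle wells on the same plate.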

SMILES | gametocyte viability (concentration: 1 µM) | gametocyte viability (concentration: 10 µM)
CC(C)N1CCN(c2ccc(OCC3COC(Cn4cncn4)(c4ccc(Cl)cc4Cl)O3)cc2)CC1 (centres undefined) [Terconazole] | inactive: 80.8 | inactive: 86.3
COc1ccc2[nH]cc(CCNC(C)=O)c2c1 [Melatonin] | inactive: 80.2 | inactive: 85.4
NC[C@H]1O[C@H](O[C@H]2[C@H](O[C@@H]3O[C@H](CO)[C@@H](O)[C@H]3O)[C@@H](O)[C@H](N)C[C@@H]2N)[C@H](N)[C@@H](O)[C@@H]1O [Ribostamycin sulfate salt] | inactive: 87 | inactive: 85.5
Cc1ccc(C(=O)c2cc(O)c(O)c([N+](=O)[O-])c2)cc1 [Tolcapone] | inactive: 83.2 | inactive: 87.4
COc1ccc(C(=O)NCc2cccnc2)cc1C(=O)NCc1cccnc1 [Picotamide monohydrate] | inactive: 80.6 | inactive: 75.3
Nc1nc(=O)c2nc(CNc3ccc(C(=O)N[C@@H](CCC(=O)O)C(=O)O)cc3)cnc2[nH]1 [Folic acid] | inactive: 94.9 | inactive: 98.6
CC(=O)N[C@@H](CC(C)C)C(=O)O [N-Acetyl-L-leucine] | inactive: 87.4 | inactive: 95.1
CC[C@H]1OC(=O)[C@H](C)[C@@H](O[C@H]2C[C@@](C)(OC)[C@@H](O)[C@H](C)O2)[C@H](C)[C@@H](O[C@@H]2O[C@H](C)C[C@H](N(C)C)[C@H]2O)[C@](C)(O)C[C@@H](C)/C(=N\OCOCCOC)[C@H](C)[C@@H](O)[C@]1(C)O [Roxithromycin] | inactive: 84 | inactive: 80.6
Nc1nc(F)nc2c1ncn2[C@@H]1O[C@H](CO)[C@@H](O)[C@@H]1O [Fludarabine] | inactive: 80.9 | inactive: 77.7
O=C1CN2Cc3c(ccc(Cl)c3Cl)N=C2N1 [Anagrelide] | inactive: 81.9 | inactive: 83.4
Nc1nc(=S)c2ncn([C@@H]3O[C@H](CO)[C@@H](O)[C@H]3O)c2[nH]1 [Thioguanosine] | inactive: 99.7 | inactive: 91.3
CC(C)NCC(O)COc1ccc(COCCOC(C)C)cc1 (centres undefined) [Bisoprolol fumarate] | inactive: 83.7 | inactive: 86.5
CC(C)C(=O)OCC(=O)[C@@]12O[C@H](C3CCCCC3)O[C@@H]1C[C@H]1[C@@H]3CCC4=CC(=O)C=C[C@]4(C)[C@H]3[C@@H](O)C[C@@]12C [Ciclesonide] | inactive: 86.7 | inactive: 94.8
O=C(Cn1ccnc1[N+](=O)[O-])NCCO [Etanidazole] | inactive: 91.4 | inactive: 95.8
Clc1ccc(C(Cn2ccnc2)OCc2c(Cl)cccc2Cl)c(Cl)c1 (centres undefined) [Isoconazole] | inactive: 91.2 | inactive: 90.9
NC(=O)N1c2ccccc2C=Cc2ccccc21 [Carbamazepine] | inactive: 92 | inactive: 100
CN(C)CCN(Cc1cccs1)c1ccccn1 [Methapyrilene hydrochloride] | inactive: 80.7 | inactive: 80.6
COc1c(O[C@@H]2O[C@H](CO)[C@@H](O)[C@H](O)[C@H]2O)cc2c(c1OC)-c1ccc(SC)c(=O)cc1[C@@H](NC(C)=O)CC2 [Thiocolchicoside] | inactive: 94.6 | inactive: 95.3
CCCN[C@H]1CCc2nc(N)sc2C1 [Pramipexole] | inactive: 86 | inactive: 90.5

SMILES | gametocyte viability (concentration: 1 µM) | gametocyte viability (concentration: 10 µM)
CCOC(=O)c1ccc(OC(=O)CCCCCNC(=N)N)cc1 [Gabexate mesilate] | inactive: 88.8 | inactive: 92
Cc1cc(=O)oc2cc(O)ccc12 [Hymecromone] | inactive: 88 | inactive: 83.9
COc1ccc(CN(CCN(C)C)c2ccccn2)cc1 [Pyrilamine maleate] | inactive: 90.9 | inactive: 100
CCCNC(C)C(=O)Nc1ccccc1C (centres undefined) [Prilocaine hydrochloride] | inactive: 94.6 | inactive: 89.1
CC(COc1ccccc1)N(CCCl)Cc1ccccc1 (centres undefined) [Phenoxybenzamine hydrochloride] | inactive: 99.6 | inactive: 93.1
CC(=O)c1ccc(S(=O)(=O)NC(=O)NC2CCCCC2)cc1 [Acetohexamide] | inactive: 86.3 | inactive: 90.2
Cc1scc2c1N(C(=O)CN1CCN(C)CC1)c1ccccc1NC2=O [Telenzepine dihydrochloride] | inactive: 97.8 | inactive: 96.3
Cn1c(=O)c2nc[nH]c2n(C)c1=O [Theophylline monohydrate] | inactive: 90.1 | inactive: 97
c1ccc(C2CN3CCSC3=N2)cc1 (centres undefined) [Tetramisole hydrochloride] | inactive: 83.5 | inactive: 92.2
NCCCC[C@H](N[C@@H](CCc1ccccc1)C(=O)O)C(=O)N1CCC[C@H]1C(=O)O [Lisinopril] | inactive: 86.7 | inactive: 90.4
O=C(Nc1cccc2c(=O)cc(-c3nnn[nH]3)oc12)c1ccc(OCCCCc2ccccc2)cc1 [Pranlukast] | inactive: 92.7 | inactive: 89.2
CC(C)(C)NC[C@H](O)COc1nsnc1N1CCOCC1 [Timolol maleate salt] | inactive: 91.2 | inactive: 89.6
CCOC(=O)OC(C)OC(=O)[C@@H]1N2C(=O)[C@@H](NC(=O)[C@H](N)c3ccccc3)[C@H]2SC1(C)C (some centres undefined) [Bacampicillin hydrochloride] | inactive: 88.2 | inactive: 83.6
CCOC(=O)[C@H](CCc1ccccc1)N[C@H]1CCc2ccccc2N(CC(=O)O)C1=O [Benazepril HCl] | inactive: 88.2 | inactive: 86.5
COC1=C(OC)C(=O)C(CCCCCCCCCCO)=C(C)C1=O [Idebenone] | inactive: 88 | inactive: 86.8
O=C1C(CC[S+]([O-])c2ccccc2)C(=O)N(c2ccccc2)N1c1ccccc1 (centres undefined) [Sulfinpyrazone] | inactive: 98 | inactive: 96
NS(=O)(=O)c1cc2c(cc1Cl)N=C(CSCc1ccccc1)NS2(=O)=O [Benzthiazide] | inactive: 88.6 | inactive: 91.6
CC(=O)O[C@]1(C(C)=O)CC[C@H]2[C@@H]3C=C(C)C4=CC(=O)CC[C@@H]4[C@H]3CC[C@@]21C [Nomegestrol acetate] | inactive: 81.7 | inactive: 75.6
CN1CCN(CCCN2c3ccccc3Sc3ccc(S(=O)(=O)N(C)C)cc32)CC1 [Thioproperazine dimesylate] | inactive: 81.7 | inactive: 52.8

SMILES | gametocyte viability (concentration: 1 µM) | gametocyte viability (concentration: 10 µM)
C[C@@H](c1ncncc1F)[C@](O)(Cn1cncn1)c1ccc(F)cc1F [Voriconazole] | inactive: 81.9 | inactive: 82.8
O=C(O)Cc1ccccc1Nc1c(Cl)cccc1Cl [Diclofenac sodium] | inactive: 89.2 | inactive: 93.4
CC(=O)Oc1cc(C(F)(F)F)ccc1C(=O)O [Triflusal] | inactive: 82.3 | inactive: 87.1
CS(=O)(=O)c1ccc([C@@H](O)[C@@H](CO)NC(=O)C(Cl)Cl)cc1 [Thiamphenicol] | inactive: 88.8 | inactive: 85.6
CC(C)Cc1ccc([C@H](C)C(=O)O)cc1 [S-(+)-ibuprofen] | inactive: 86.6 | inactive: 89.2
C[C@]12C=CC(=O)C=C1CC[C@@H]1[C@@H]2[C@@H](O)C[C@@]2(C)[C@H]1CC[C@]2(O)C(=O)CO [Prednisolone] | inactive: 100 | inactive: 91.9
O=c1[nH]cc(F)c(=O)[nH]1 [5-fluorouracil] | inactive: 83.9 | inactive: 90.5
Nc1ccc(O)c(C(=O)O)c1 [Mesalamine] | inactive: 84.2 | inactive: 80.8
CCN(CC)CCOC(=O)C1(c2ccc([N+](=O)[O-])cc2)CCCC1 [Nitrocaramiphen hydrochloride] | inactive: 90 | inactive: 80.4
Clc1ccccc1CN1CCc2sccc2C1 [Ticlopidine hydrochloride] | inactive: 96 | inactive: 93.2
CN(C)CCCN1c2ccccc2CCc2ccc(Cl)cc21 [Clomipramine hydrochloride] | inactive: 89.3 | inactive: 77.5
CO[C@@]1(NC(=O)C2SC(=C(C(N)=O)C(=O)O)S2)C(=O)N2C(C(=O)O)=C(CSc3nnnn3C)CS[C@@H]21 (some centres undefined) [Cefotetan] | inactive: 95.5 | inactive: 95.6
Cc1cc(NC(=O)C2=C(O)c3ccccc3S(=O)(=O)N2C)no1 [Isoxicam] | inactive: 82.8 | inactive: 81.8
Cc1cc(C(C)(C)CC(C)(C)C)ccc1OCCOCC[N+](C)(C)Cc1ccccc1 [Methyl benzethonium chloride] | inactive: 88.6 | active: 6.6
COC(=O)C1=C(C)NC(C)=C(C(=O)OC)C1c1ccccc1[N+](=O)[O-] [Nifedipine] | inactive: 91.8 | inactive: 80.7
CO[C@@]1(NC(=O)C(C(=O)O)c2ccc(O)cc2)C(=O)N2C(C(=O)O)=C(CSc3nnnn3C)CO[C@@H]21 (some centres undefined) [Moxalactam disodium salt] | inactive: 86.7 | inactive: 84.7
C#C[C@]1(O)CC[C@H]2[C@@H]3CCC4=CC(=O)CC[C@@H]4[C@H]3CC[C@@]21C [Norethindrone] | inactive: 86.6 | inactive: 77.3
C#C[C@]1(OC(C)=O)CC[C@H]2[C@@H]3CCC4=C[C@@H](OC(C)=O)CC[C@@H]4[C@H]3CC[C@@]21C [Ethynodiol diacetate] | inactive: 89.2 | inactive: 88.8
Nc1ccc(S(=O)(=O)Nc2ncccn2)cc1 [Sulfadiazine] | inactive: 101 | inactive: 99
